We go through 45 compounds from the antibiotic and cytotoxicity screens of Wong et al. (2023).

Each structure is given as a SMILES string. The list shows a part of the results.

One assay relates to HSkMC. Description: cytotoxicity call (relative viability < 0.9). The note with it: 10 µM.
The next assay concerns HepG2. Description: cytotoxicity call (relative viability < 0.9). The note with it: 10 µM.
The test system of another assay is S. aureus RN4220. As to the kind of experiment: growth inhibition call (relative growth <= 0.2). The note with it: 50 µM.

In the case of `C[C@@H]1CCCCO[C@@H](CN(C)Cc2ccc(C(F)(F)F)cc2)[C@H](C)CN([C@@H](C)CO)C(=O)c2cc(N(C)C)ccc2O1`, the cytotoxicity call in the assay on HSkMC and in the assay on HepG2 was “inactive” each time. The growth inhibition call in the assay on S. aureus RN4220 is “inactive”.

Consider `O=C(NCC[C@@H]1CC[C@@H](NS(=O)(=O)c2cccc(F)c2)[C@H](CO)O1)C1CC1`, for which the cytotoxicity call in the assay with HSkMC and with HepG2 was “inactive” in each case. The growth inhibition call in the assay on S. aureus RN4220 is “inactive”.

As to `C[C@H]1CN([C@@H](C)CO)C(=O)c2cc(NC(=O)Nc3ccc4c(c3)OCO4)ccc2O[C@@H]1CN(C)Cc1ccc(-c2ccccc2)cc1`, in the assay on HSkMC, the cytotoxicity call is “inactive”. Moreover, in the assay with HepG2, the cytotoxicity call was “active”. The growth inhibition call in the assay with S. aureus RN4220 is “inactive”.

Consider `C[C@H](CO)N1C[C@H](C)[C@H](CN(C)Cc2ccc(Cl)c(Cl)c2)Oc2ccc(NC(=O)Nc3ccc(C(F)(F)F)cc3)cc2C1=O`, for which the cytotoxicity call in the assay with HSkMC and with HepG2 was “active” throughout. Also, in the assay on S. aureus RN4220, the growth inhibition call was “inactive”.

`O=C(C[C@H]1CC[C@H]2[C@@H](COC[C@H](O)CN2C(=O)Nc2cc(Cl)cc(Cl)c2)O1)N1CCOCC1`: the cytotoxicity call with HSkMC and with HepG2 was “inactive” each time. The growth inhibition call in the assay on S. aureus RN4220 is “inactive”.

Take `Cc1ccc(NC(=O)c2ccc(CN3CC[C@H](N(C)C)C3)c(C(F)(F)F)c2)cc1Nc1nccc(-c2cncnc2)n1`: the cytotoxicity call in the assay on HSkMC and with HepG2 was “active” in each case. Also, the growth inhibition call with S. aureus RN4220 is “inactive”.

Consider `COCCNC(=O)C[C@H]1CC[C@@H]2[C@H](COC[C@H](O)CN2C(=O)Nc2ccccc2OC)O1`, for which the cytotoxicity call with HSkMC was “inactive”. Further, the cytotoxicity call in the assay on HepG2 is “active”. For the same compound, the growth inhibition call with S. aureus RN4220 is “inactive”.

In the case of `C[C@@H]1CN([C@@H](C)CO)C(=O)c2cccc(NC(=O)c3ccc(-c4nccs4)cc3)c2O[C@H]1CN(C)S(=O)(=O)c1cn(C)cn1`, the cytotoxicity call with HSkMC and in the assay on HepG2 was “inactive” each time. Also, the growth inhibition call with S. aureus RN4220 is “inactive”.

As for `CN(C)CCc1cc(Br)c(OCCCNC(=O)/C=C/c2cc(Br)c(OCCN3CCCCC3)c(Br)c2)c(Br)c1`, in the assay on HSkMC, the cytotoxicity call is “inactive”. For the same compound, in the assay with HepG2, the cytotoxicity call is “active”. Further, the growth inhibition call with S. aureus RN4220 was “inactive”.

Turning to `COc1cccc(CN(C)C[C@H]2OCc3ccccc3-c3c(n(C)c4ccccc34)C(=O)N([C@H](C)CO)C[C@@H]2C)c1`, the cytotoxicity call in the assay on HSkMC and in the assay with HepG2 was “inactive” in each case. Besides, the growth inhibition call with S. aureus RN4220 is “inactive”.

As to `Cc1noc(C)c1S(=O)(=O)Nc1ccc2c(c1)C(=O)N([C@@H](C)CO)C[C@@H](C)[C@H](CN(C)C(=O)Nc1cccc3ccccc13)OCCCC[C@H](C)O2`, the cytotoxicity call in the assay with HSkMC and in the assay on HepG2 was “inactive” in each case. Also, the growth inhibition call in the assay with S. aureus RN4220 is “inactive”.

Turning to `Cc1ccc(S(=O)(=O)Nc2ccc3c(c2)C(=O)N([C@@H](C)CO)C[C@H](C)[C@@H](CN(C)C(=O)Nc2ccc4c(c2)OCO4)OCCCC[C@H](C)O3)cc1`, the cytotoxicity call in the assay with HSkMC and in the assay on HepG2 was “inactive” throughout. Further, the growth inhibition call in the assay on S. aureus RN4220 was “inactive”.

For the compound `O=C(C[C@H]1C[C@@H]2c3cc(NC(=O)NC4CCCC4)ccc3O[C@@H]2[C@H](CO)O1)NCc1ccc(-c2ccccc2)cc1`, in the assay with HSkMC, the cytotoxicity call is “inactive”. Also, in the assay on HepG2, the cytotoxicity call is “active”. Further, in the assay on S. aureus RN4220, the growth inhibition call was “inactive”.

In the case of `C[C@@H]1CN([C@@H](C)CO)C(=O)c2cccc(NS(C)(=O)=O)c2O[C@H]1CN(C)S(=O)(=O)c1ccc(F)cc1`, the cytotoxicity call in the assay with HSkMC and in the assay with HepG2 was “inactive” in each case. For the same compound, the growth inhibition call in the assay on S. aureus RN4220 is “inactive”.

`COc1cccc(-c2cn(CC[C@@H]3CC[C@@H](NC(=O)CN(C)C)[C@@H](CO)O3)nn2)c1`: the cytotoxicity call with HSkMC and with HepG2 was “inactive” in each case. For the same compound, the growth inhibition call in the assay on S. aureus RN4220 is “inactive”.

As to `COc1ccc(CN(C)C[C@@H]2OCCCC[C@@H](C)Oc3ccc(NS(=O)(=O)c4ccc(C)cc4)cc3C(=O)N([C@H](C)CO)C[C@H]2C)cc1`, the cytotoxicity call in the assay on HSkMC and in the assay with HepG2 was “inactive” each time. Further, the growth inhibition call with S. aureus RN4220 was “inactive”.

Turning to `NCC[C@H]1CC[C@H](NC(=O)c2ccccc2F)[C@H](CO)O1`, the cytotoxicity call in the assay with HSkMC and in the assay on HepG2 was “inactive” each time. The growth inhibition call in the assay with S. aureus RN4220 was “inactive”.

In the case of `Cc1ccccc1Nc1nnc(C)c(=O)n1N`, the cytotoxicity call with HSkMC and in the assay on HepG2 was “inactive” each time. Further, in the assay with S. aureus RN4220, the growth inhibition call is “inactive”.

For `O=C(O)CCCCCCC(=O)Nc1ccc([C@H]2O[C@@H](CSc3ccncc3)C[C@H](c3ccccc3)O2)cc1`, the cytotoxicity call in the assay with HSkMC and in the assay on HepG2 was “inactive” each time. In addition, in the assay on S. aureus RN4220, the growth inhibition call is “inactive”.

For the compound `C[C@H]1CN([C@@H](C)CO)S(=O)(=O)c2ccc(C#CC3(O)CCCC3)cc2O[C@@H]1CN(C)C(=O)c1ccccc1`, the cytotoxicity call with HSkMC and with HepG2 was “inactive” each time. Besides, in the assay on S. aureus RN4220, the growth inhibition call was “inactive”.

For the compound `C[C@@H]1CN([C@@H](C)CO)C(=O)c2cc(NC(=O)Nc3cccc4ccccc34)ccc2O[C@@H]1CN(C)Cc1ccc(Oc2ccccc2)cc1`, the cytotoxicity call in the assay with HSkMC and with HepG2 was “active” in each case. The growth inhibition call in the assay with S. aureus RN4220 is “inactive”.

Turning to `CCOC(=O)C[C@@H](N)c1cccc(O)c1`, the cytotoxicity call in the assay with HSkMC and in the assay with HepG2 was “inactive” each time. Further, in the assay on S. aureus RN4220, the growth inhibition call was “inactive”.

For `Cc1cccc(CO)n1`, the cytotoxicity call with HSkMC and with HepG2 was “inactive” throughout. In addition, in the assay on S. aureus RN4220, the growth inhibition call was “inactive”.

On to `Cc1nc(N)sc1-c1ccnc(Nc2ccc(N3CCOCC3)cc2)n1`, for which the cytotoxicity call in the assay on HSkMC is “inactive”. The cytotoxicity call in the assay on HepG2 was “active”. Moreover, the growth inhibition call in the assay with S. aureus RN4220 is “inactive”.

On to `C[C@H]1CN([C@@H](C)CO)C(=O)c2cc(-c3cccc(C#N)c3)cnc2O[C@@H]1CN(C)C(=O)c1cnccn1`, for which the cytotoxicity call with HSkMC and with HepG2 was “inactive” in each case. In addition, in the assay with S. aureus RN4220, the growth inhibition call was “inactive”.

With `O=C(N[C@@H]1CC[C@H](CCNS(=O)(=O)c2ccccc2)O[C@H]1CO)c1cnccn1`, the cytotoxicity call in the assay with HSkMC and with HepG2 was “inactive” in each case. For the same compound, the growth inhibition call in the assay with S. aureus RN4220 was “inactive”.

Turning to `COc1ccc(NC(=O)Nc2cccc3c2O[C@H](CN(C)CC2CCCCC2)[C@@H](C)CN([C@@H](C)CO)C3=O)cc1`, the cytotoxicity call with HSkMC and in the assay with HepG2 was “inactive” throughout. Also, in the assay on S. aureus RN4220, the growth inhibition call is “inactive”.

On to `Cc1noc(C)c1NC(=O)N(C)C[C@@H]1Oc2ccc(NS(=O)(=O)c3cn(C)cn3)cc2C(=O)N([C@H](C)CO)C[C@@H]1C`, for which the cytotoxicity call with HSkMC and in the assay with HepG2 was “inactive” in each case. The growth inhibition call in the assay on S. aureus RN4220 is “inactive”.

Consider `CO[C@@H]1CN(C)C(=O)c2ccc(NC(C)=O)cc2OC[C@@H](C)N(S(=O)(=O)c2cn(C)cn2)C[C@@H]1C`, for which the cytotoxicity call in the assay on HSkMC and in the assay on HepG2 was “inactive” each time. Further, the growth inhibition call in the assay on S. aureus RN4220 was “inactive”.

On to `Cc1ccc(S(=O)(=O)Nc2cccc3c2O[C@@H](CN(C)CC2CC2)[C@H](C)CN([C@H](C)CO)C3=O)cc1`, for which the cytotoxicity call in the assay on HSkMC and in the assay on HepG2 was “inactive” throughout. For the same compound, the growth inhibition call in the assay with S. aureus RN4220 is “inactive”.

For the compound `COc1ccc(CN(C)C[C@@H]2OCCCC[C@@H](C)Oc3ccc(NS(=O)(=O)c4cccs4)cc3C(=O)N([C@@H](C)CO)C[C@H]2C)cc1`, the cytotoxicity call in the assay on HSkMC and with HepG2 was “inactive” in each case. Moreover, the growth inhibition call with S. aureus RN4220 is “inactive”.

`O=C(C[C@H]1CC[C@H]2[C@@H](COC[C@@H](O)CN2S(=O)(=O)c2ccc(Cl)cc2)O1)N[C@H]1CCN(Cc2ccccc2)C1`: the cytotoxicity call in the assay with HSkMC and in the assay with HepG2 was “inactive” in each case. Also, the growth inhibition call with S. aureus RN4220 was “inactive”.

Consider `C[C@H]1CN([C@@H](C)CO)S(=O)(=O)c2ccc(C#CC3CC3)cc2O[C@@H]1CN(C)Cc1ccc(F)cc1`, for which, in the assay with HSkMC, the cytotoxicity call was “active”. In the assay with HepG2, the cytotoxicity call was “inactive”. In the assay on S. aureus RN4220, the growth inhibition call was “inactive”.

Turning to `NC[C@H]1CCS(=O)(=O)C1`, the cytotoxicity call in the assay on HSkMC and in the assay with HepG2 was “inactive” throughout. Further, the growth inhibition call in the assay on S. aureus RN4220 is “inactive”.

Turning to `C[C@@H]1CN([C@H](C)CO)C(=O)c2cc(NS(=O)(=O)c3ccc(Cl)cc3)ccc2O[C@@H](C)CCCCO[C@H]1CN(C)C(=O)Nc1ccc2c(c1)OCO2`, the cytotoxicity call in the assay on HSkMC and in the assay with HepG2 was “inactive” in each case. In addition, the growth inhibition call with S. aureus RN4220 is “inactive”.

Regarding `O=C(CN1CCOCC1)N[C@@H]1CC[C@@H](CCNS(=O)(=O)c2ccccc2F)O[C@H]1CO`, the cytotoxicity call with HSkMC and in the assay with HepG2 was “inactive” in each case. Besides, the growth inhibition call with S. aureus RN4220 is “inactive”.

As to `CS(=O)(=O)O.Oc1ccc(C2CNCCc3c2cc(O)c(O)c3Cl)cc1` (stereo not given), the cytotoxicity call with HSkMC and in the assay on HepG2 was “inactive” in each case. In addition, in the assay with S. aureus RN4220, the growth inhibition call is “inactive”.

Take `C[C@@H](NC(=O)C[C@H]1CC[C@@H](NC(=O)CN2CCOCC2)[C@H](CO)O1)c1ccccc1`: the cytotoxicity call in the assay on HSkMC and in the assay on HepG2 was “inactive” throughout. The growth inhibition call in the assay with S. aureus RN4220 is “inactive”.

Take `C[C@H]1CN([C@@H](C)CO)C(=O)c2cc(NS(=O)(=O)c3ccc(F)cc3)ccc2O[C@H]1CN(C)S(=O)(=O)c1cccs1`: the cytotoxicity call with HSkMC and in the assay on HepG2 was “inactive” throughout. Further, in the assay on S. aureus RN4220, the growth inhibition call was “inactive”.

Turning to `CN(C)CC(=O)N1[C@@H]2Cn3c(ccc(-c4cccnc4)c3=O)[C@H]1[C@@H](C(=O)NC1CCC1)[C@@H]2CO`, the cytotoxicity call in the assay on HSkMC and in the assay on HepG2 was “inactive” throughout. Moreover, in the assay on S. aureus RN4220, the growth inhibition call was “inactive”.

For `C[C@@H]1CN([C@@H](C)CO)C(=O)c2cc(NC(=O)Cn3cnnn3)ccc2O[C@H]1CN(C)Cc1ccc(Cl)c(Cl)c1`, the cytotoxicity call in the assay on HSkMC and in the assay on HepG2 was “inactive” throughout. In the assay with S. aureus RN4220, the growth inhibition call is “inactive”.

Turning to `C[C@@H]1CCCCO[C@@H](CN(C)C(=O)C2CCCCC2)[C@H](C)CN([C@@H](C)CO)C(=O)c2cc(NC(=O)c3ccccc3)ccc2O1`, the cytotoxicity call in the assay on HSkMC and with HepG2 was “inactive” throughout. For the same compound, the growth inhibition call in the assay on S. aureus RN4220 was “inactive”.

Regarding `C[C@@H]1CN([C@@H](C)CO)C(=O)c2cccc(NS(=O)(=O)c3cn(C)cn3)c2O[C@H]1CN(C)S(=O)(=O)c1cccs1`, the cytotoxicity call with HSkMC and in the assay with HepG2 was “inactive” throughout. The growth inhibition call in the assay with S. aureus RN4220 is “inactive”.

In the case of `Cc1cc(=O)[nH][nH]1`, the cytotoxicity call in the assay on HSkMC and with HepG2 was “inactive” in each case. Moreover, the growth inhibition call in the assay with S. aureus RN4220 is “inactive”.

For the compound `C[C@H](CO)N1C[C@H](C)[C@H](CN(C)C(=O)Nc2cccc3ccccc23)OCCCC[C@H](C)Oc2ccc(N(C)C)cc2C1=O`, the cytotoxicity call in the assay on HSkMC (human skeletal muscle cells) and with HepG2 was “inactive” each time. The growth inhibition call in the assay with S. aureus RN4220 is “inactive”.
